Results reported in PubChem BioAssay AID624417 (National Center for Advancing Translational Sciences (NCATS), 2012).
The campaign covered roughly 410,000 compounds. About 6,400 (1.6%) were called active. The shares of active, inactive and inconclusive entries below differ from those in the screen. The call rests on the fitted dose curve; in most records, active means well fitted inhibition curve with a large enough effect; inconclusive means small, poorly fitted or top-dose-only effect; inactive means no such curve, though single readings can be large or run the other way. Potencies of inconclusive entries are left out as doubtful fits.

The molecules below were run against Glucagon-like peptide 1 receptor (Homo sapiens) (UniProt P43220) (assay: qHTS of GLP-1 Receptor Inverse Agonists (Inhibition Mode)). Conditions: HEK293 GLP-1R CRE-luciferase, luminescence, 24 h, GLP-1R form is constitutively active; series mostly up to 38.3 µM.
Method in brief: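 HEK293 cells stably co-expressing a cAMP-responsive luciferase reporter and constitutively active GLP-1R were seeded, incubated 12 h, then exposed to compounds for 24 h at 37 C. Luminescence was read 12 min after detection reagent; inverse agonists lower signal.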
Further: nearly all actives have a fitted effect of over 55% in size.
Potency means the concentration at half of the fitted maximal effect; tags describe the fitted curve by direction and shape.

Sequence of UniProt P43220 (P43220 whole entry, looked up): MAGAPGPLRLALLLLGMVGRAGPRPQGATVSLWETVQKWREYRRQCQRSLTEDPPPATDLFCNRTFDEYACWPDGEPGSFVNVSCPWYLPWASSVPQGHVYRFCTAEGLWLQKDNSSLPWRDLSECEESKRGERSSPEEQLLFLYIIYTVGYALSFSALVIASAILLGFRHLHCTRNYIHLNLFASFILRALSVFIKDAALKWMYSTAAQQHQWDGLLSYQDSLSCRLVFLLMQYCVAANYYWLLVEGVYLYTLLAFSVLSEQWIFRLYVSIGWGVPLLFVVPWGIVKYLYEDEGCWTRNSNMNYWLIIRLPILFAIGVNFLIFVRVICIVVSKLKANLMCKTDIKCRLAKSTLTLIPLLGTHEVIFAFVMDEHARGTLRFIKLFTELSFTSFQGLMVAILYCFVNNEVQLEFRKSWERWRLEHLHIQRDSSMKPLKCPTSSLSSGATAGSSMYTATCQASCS

| Compound | Potency |
| --- | --- |
| O=C(Nc1cnc2ccccc2c1)N1CCCCC1 | inconclusive [inhibitor, single point] |
| FC(F)(F)c1ccc(-n2ccnc2)nc1 | inconclusive [inhibitor, full curve, poor fit] |
| NC(=O)C1CCN(c2nc(-c3ccc(Br)cc3)cs2)CC1 | inactive |
| COC(=O)CN1C(=S)N(c2ccc(OC)cc2)C(=O)/C1=C/c1ccc(OC)cc1 | inconclusive [inhibitor, partial curve, poor fit] |
| Cc1ccc(CNC(=O)c2ccc3c(c2)N(Cc2cccc(Cl)c2)C(=O)CS3)cc1 | inconclusive [inhibitor, single point] |
| O=C(c1ccc(C#CC2(O)CCCCC2)cc1)N1CCN(C(c2ccccc2)c2ccccc2)CC1 | inconclusive [inhibitor, full curve, poor fit] |
| CCc1ccn2cc(-c3ccc4c(c3)OCO4)nc2c1 | inconclusive [inhibitor, full curve, poor fit] |
| CCOC(=O)[C@]12CCCC=C1N(Cc1ccccc1)C(=O)[C@H](CC(=O)NCCc1ccccc1OC)C2 | inconclusive [inhibitor, partial curve, poor fit] |
| CC(=O)c1cccc(NC(=O)Nc2ccc(C)cc2)c1 | inconclusive [inhibitor, single point] |
| CCC(=O)N1CCc2cc(S(=O)(=O)CCC(=O)NCc3ccc(F)cc3)ccc21 | inconclusive [inhibitor, partial curve, poor fit] |
| CCc1ccccc1NC(=S)N(CCN(C)C)C(C)c1ccco1 (configuration not stated) | inconclusive [inhibitor, single point] |
| COc1ccc(-c2nc3ccc(C)cn3c2NCc2ccc3c(c2)OCO3)cc1 | inactive |
| COc1cccc(NC(=O)N2CCCc3ccccc32)c1 | inconclusive [inhibitor, single point] |
| CCCSc1ccc([C@H]2N[C@@](CC(C)C)(C(=O)OC)[C@H]3C(=O)N(C)C(=O)[C@@H]23)cc1 | inconclusive [inhibitor, single point] |
| COc1cc(C(=S)N2CCN(C(c3ccccc3)c3ccccc3)CC2)cc(OC)c1O | inconclusive [inhibitor, single point] |
| COc1cc(OC)c(NC(=S)Nc2cc(Cl)cc(Cl)c2)cc1Cl | inconclusive [inhibitor, single point] |
| COc1ccc(Cn2c(C(=O)O)c(CNCCc3ccccc3Cl)c3ccc(C)cc32)cc1 | inconclusive [inhibitor, single point] |
